From PubChem BioAssay AID2060604 (Molecular Pharmacology Branch, DTP, NCI, 2025)
Not every entry of the source has a single result; some have several. Only these are listed. There may be further records. Values given together repeat one measurement in other runs, samples, wells, individuals or studies.

Tested on: 379773-124-R-J2-PDC complex spheroids, viability % test/control
Experiment: Anticancer human tumor 379773-124-R-J2-PDC patient-derived endometrial carcinoma cell line growth inhibition [CLK]
Conditions: compound alone 0.1 µM; stronger effect = lower value
Excerpt: A high-throughput screen of multi-cell type tumor spheroids was designed to identify active combinations of […] and targeted small molecules. Complex spheroids include a stromal component modeled by human endothelial cells (HUVEC) and fibroblasts modeled by human mesenchymal stem cells (MSCs). The concentration ranges selected for each drug and investigational agent were based upon clinically achievable concentrations if the clinical Cmax of the agent was known.
Compounds. The drugs and investigational agents: cirtuvivint (SM08502; NSC835563), CC-671 (NSC850746), vemurafenib (NSC761431), tapotoclax (NSC804041), sotorasib (NSC818433), adagrasib (NSC831453), MRTX-1133 (NSC836407), BAY2416964 (NSC825713), copanlisib (NSC816437), inavolisib (NSC800729), abemaciclib (NSC768073), osimertinib (NSC779217), entinostat (NSC756642), eltanexor (KPT-8602, NSC794443), venetoclax (NSC766270), ceralasertib (NSC777638), bortezomib (NSC756655), olaparib (NSC753686), talazoparib (NSC767125), alisertib (NSC759677), peposertib (NSC802822), gemcitabine (NSC613327), 5-fluorouracil (NSC19893), SN-38 (NSC673596), oxaliplatin (NSC266046), paclitaxel (NSC125973), and doxorubicin (NSC123127), were obtained from the National Cancer Institute (NCI) Developmental Therapeutics Program Chemical Repository. […] If the clinical Cmax for an agent had not been determined, the highest concentration tested was 10 microM. […]
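Further: compound exposure lasted seven days before the viability readout; 100% = DMSO vehicle control wells.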

SMILES: CN1CCN(c2cc(C(=O)Nc3cc4cc(-c5cnn(C)c5)ccc4cn3)ccn2)CC1
- viability, T/C: 95.1, 90.5, 81.9, 80.3, 68.3, 87.5, 79.2, 80.8, 83, 87.7, 80.5, 90.4%
